PMC4336329 (PLoS ONE, 2015)
The whole screen tested about 310,000 compounds, of which about 14,000 (4.5%) showed an effect of 50% or more. Effects have a minus sign here. The list shows a part of the results. Where a SMILES comes first, the peptide text is derived from it. The star is where a group is joined. Boc = CC(C)(C)OC(=O)*; OtBu = CC(C)(C)O*

The compounds below were run against human ether-à-go-go-related gene (hERG) potassium channel (human, UniProt Q12809) (assay: primary screen, population patch clamp on CHO cells stably expressing hERG).
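Note: peak tail current of the secondary pulse compared with the same well before compound.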

human ether-à-go-go-related gene (hERG) potassium channel, sequence (Q12809 whole entry, looked up): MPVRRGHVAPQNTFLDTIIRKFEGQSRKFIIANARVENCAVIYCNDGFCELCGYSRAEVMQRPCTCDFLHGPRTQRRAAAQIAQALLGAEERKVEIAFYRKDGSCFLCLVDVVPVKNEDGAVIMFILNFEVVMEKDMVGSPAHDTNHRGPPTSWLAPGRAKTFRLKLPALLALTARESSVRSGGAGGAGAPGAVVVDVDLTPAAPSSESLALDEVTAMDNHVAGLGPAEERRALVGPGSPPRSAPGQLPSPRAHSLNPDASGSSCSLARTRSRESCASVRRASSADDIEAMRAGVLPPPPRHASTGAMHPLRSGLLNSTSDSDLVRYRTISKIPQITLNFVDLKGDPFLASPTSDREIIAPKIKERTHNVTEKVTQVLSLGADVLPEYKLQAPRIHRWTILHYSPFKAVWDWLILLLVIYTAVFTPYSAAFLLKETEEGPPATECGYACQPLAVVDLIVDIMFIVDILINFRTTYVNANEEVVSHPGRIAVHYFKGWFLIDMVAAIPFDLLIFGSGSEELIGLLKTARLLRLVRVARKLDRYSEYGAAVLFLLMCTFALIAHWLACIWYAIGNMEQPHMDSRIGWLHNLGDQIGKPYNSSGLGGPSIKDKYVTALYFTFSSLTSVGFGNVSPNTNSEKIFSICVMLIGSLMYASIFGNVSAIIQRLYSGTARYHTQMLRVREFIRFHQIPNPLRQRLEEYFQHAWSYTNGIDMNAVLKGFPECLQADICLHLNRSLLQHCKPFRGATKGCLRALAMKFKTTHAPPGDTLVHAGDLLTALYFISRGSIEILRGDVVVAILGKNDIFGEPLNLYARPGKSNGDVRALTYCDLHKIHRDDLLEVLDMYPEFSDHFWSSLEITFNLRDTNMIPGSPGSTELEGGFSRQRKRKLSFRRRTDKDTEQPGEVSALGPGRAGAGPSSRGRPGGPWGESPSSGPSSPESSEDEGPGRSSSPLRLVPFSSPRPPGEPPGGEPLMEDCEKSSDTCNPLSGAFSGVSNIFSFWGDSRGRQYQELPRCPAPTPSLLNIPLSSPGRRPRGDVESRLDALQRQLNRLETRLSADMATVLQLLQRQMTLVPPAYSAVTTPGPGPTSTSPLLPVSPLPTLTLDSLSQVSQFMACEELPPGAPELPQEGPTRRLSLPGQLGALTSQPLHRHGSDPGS

| SMILES | hERG current change (%, negative = inhibition) at 10uM [%] |
| --- | --- |
| Cc1ccc(/S(C)=N/S(=O)(=O)c2ccc(C)cc2)cc1 (stereo not shown) | 6.76 |
| O=C(NCc1ccco1)c1ccccc1 | 8.8 |
| CCCCCCc1cc2cc(-c3nnc(-c4ccccc4O)o3)c(=O)oc2cc1O | -4.25 |
| c1ccc2[nH]c(CN3CCOCC3)nc2c1 | 12 |
| Brc1ccc(OCc2nc(-c3ccccn3)n[nH]2)cc1 | -3.04 |
| NC(N)=NS(=O)(=O)c1ccc(NC(=S)NC(=O)c2ccc3c(c2)OCO3)cc1 | 10.3 |
| Nc1nc(N)c2ncc(C(=O)CCc3ccccc3)nc2n1 | -35.2 |
| Cl.O=C(NCCCn1ccnc1)c1cc(Cl)cc(Cl)c1 | -35.4 |
| CN(Cc1ccc(F)cc1)C(=O)c1cccc(OC2CCN(C3CCCC3)CC2)c1 | -61 |
| O=C(Nc1ccccc1)c1ccncc1 | 1.31 |
| O=C(NCCCN1CCOCC1)C(=O)NCc1ccco1 | -1.68 |
| Cn1c(CNC(=O)c2ccccc2)nnc1SCC(=O)Nc1nccs1 | 23.5 |
| CCC1=C(OC(=O)N(CC)CC)N2C(=O)OC(=NCC3CC3)[C@]2(C)[C@H]2C1=CC[C@H]1C(=O)N(C)C(=O)[C@H]12 | 3.39 |
| CCc1nnc(NC(=O)c2cc(C)nc3ccccc23)s1 | 8.79 |
| Cc1nc(SCC(=O)c2c[nH]c3ccccc23)n[nH]1 | 6.7 |
| CC(CN1CCCC1)OC(=O)c1ccc(Cl)cc1.Cl (stereo not shown) | -12.4 |
| COc1ccc(CCNC(=O)C2CCN(C(=O)c3ccccc3)CC2)cc1 | 2.13 |
| Clc1ccccc1/C=C/c1nc(-c2ccccn2)no1 | 7.15 |
| Cc1ccc(NC(=O)CN(C)S(=O)(=O)c2ccc3c(c2)n(C)c(=O)c(=O)n3C)c(C)c1 | -4.71 |
| Cn1ncc([N+](=O)[O-])c1C(=O)Nc1ccccc1Cl | 15.4 |
| CC(=O)Oc1ccc(/C=C(\NC(=O)c2ccco2)C(=O)NCc2ccccc2)cc1 | -68.3 |
| CC(C)c1ccc(NC(=O)C2=NNC(=O)CC2)cc1 | -19.3 |

| SMILES | hERG current change (%, negative = inhibition) at 10uM [%] |
| --- | --- |
| CCCCn1c(O)c(C(C)=NC(C)c2ccccc2)c(=O)[nH]c1=O (stereo not shown) | -22.3 |
| COc1cccc(CNC(=O)c2ccc(C3SCCS3)cc2)c1 | -18.9 |
| O=C(NCCc1ccccc1)C1CCN(c2ncccn2)CC1 | 1.28 |
| CC(=O)c1cccc(NS(=O)(=O)c2ccc(N/C=C\C(=O)c3ccc(F)cc3)cc2)c1 | 11.8 |
| COc1ccccc1NC(=O)CCN1C(=O)C2CC=CCC2C1=O (stereo not shown) | 8.33 |
| COC(C(=O)Nc1ccc(S(=O)(=O)Nc2c(C)cccc2C)cc1)c1ccccc1 (stereo not shown) | -74.6 |
| COCCCn1c(SCc2cccc(OC)c2)nc2cc(OC)c(OC)cc2c1=N | -12.4 |
| CC(=O)c1ccc(NC(=O)CN2CCCCCC2)cc1 | 13.4 |
| Cc1cccc(N2N=C(C(=O)Nc3ccc(Cl)c(S(=O)(=O)N4CCOCC4)c3)CCC2=O)c1 | -52.4 |
| O=[N+]([O-])c1c(N2CCN(CCO)CC2)nc2ccccn12 | 16.5 |
| CC(C)C[C@H](NC(=O)Nc1ccc2c(c1)OCCO2)C(=O)O | 15.9 |
| Cc1c(C(=O)NCc2cccnc2)oc2ccc(S(=O)(=O)N3CCCCCC3)cc12 | -38.3 |
| CCOC(=O)C1CCN(C(=O)CCS(=O)(=O)c2ccc3c(c2)CC(C)N3C(=O)CC)CC1 (stereo not shown) | 12 |
| Clc1ccc2ccc3cccnc3c2n1 | 13.8 |
| COC(=O)CN1C(=S)N(c2ccc(Cl)cc2)C(=O)C1CC(=O)Nc1ccccc1 (stereo not shown) | -7.08 |
| CN(C(=O)COC(=O)CCCN1C(=O)c2cccc3cccc(c23)C1=O)C1CCS(=O)(=O)C1 (stereo not shown) | -14.3 |
| COc1ccc(S(=O)(=O)N2CCCC(C(=O)NCc3ccco3)C2)cc1Cl (stereo not shown) | -23.5 |
| C=CCn1c(-c2ccccc2OCC)n[nH]c1=S | -9.73 |
| COc1cc(OC)cc(C(=O)NCc2ccc3c(c2)cc(C)n3C)c1 | 4.94 |
| O=C(O)c1cccc(-n2sc3ccccc3c2=O)c1 | 7.18 |
| COc1ccc(CCNC(=O)CSc2nc(O)c(CCC(C)C)c(=O)[nH]2)cc1OC | 0.815 |
| COCc1c(C(=O)OCc2nc3ccsc3c(=O)[nH]2)oc2ccccc12 | -13.8 |

| SMILES | hERG current change (%, negative = inhibition) at 10uM [%] |
| --- | --- |
| O=C(/C=C/c1ccc2c(c1)OCO2)NCCCN1CCOCC1 | -9.4 |
| C=CCNC(=O)COCc1cc(-c2ccc3c(c2)OCO3)on1 | -1.23 |
| Oc1ccc2ccccc2c1-c1sc(Nc2ccccc2)n[n+]1-c1ccc(F)cc1.[Cl-] | -0.475 |
| O=C(NC1CCC1)C1CCC(=O)N(Cc2ccccc2F)C1 (stereo not shown) | -1.77 |
| Cc1cc(-c2c(C)[nH]n(-c3ccc(Cl)cc3)c2=O)n[nH]1 | 9.37 |
| COc1ccc(S(=O)(=O)n2nc(-c3ccc(Cl)cc3)cc2N)cc1OC | 15.5 |
| C[C@@H]1O[C@@H](O[C@H]2[C@H](O)[C@@H](O)[C@H](Oc3c(-c4ccc(O)c(O)c4)oc4cc(O)cc(O)c4c3=O)O[C@@H]2CO)[C@H](O)[C@H](O)[C@H]1O | 23.1 |
| Cc1ccc(C(=O)NCc2ccc(F)cc2)s1 | -16.8 |
| O=C(NC(=S)Nc1ccccc1N1CCOCC1)c1ccc([N+](=O)[O-])cc1 | -1.82 |
| CCCN1C(=O)/C(=N\OCC(=O)NC23CC4CC(CC(C4)C2)C3)c2ccccc21 | 3.49 |
| O=C(O)C1CSC(CCc2ccccc2)N1 (stereo not shown) | 14 |
| Cc1ccc(N2CCN(c3ccc([N+](=O)[O-])cn3)CC2)c(C)c1 | 6.06 |
| C=CCn1c(SCc2cc(C(C)=O)ccc2OCC)nc2ccccc2c1=O | 1.85 |
| N#C/C(=C\N1CCOCC1)C(N)=O | 11.5 |
| COc1ccc(NC(=O)CC(C)NCCCN2CCCC2=O)cc1.O=C(O)C(=O)O (stereo not shown) | 11.8 |
| CC1CCN(C(=O)C2c3ccccc3C(=O)N3CCc4ccccc4C23)CC1 (stereo not shown) | 10.7 |
| CC(C)Sc1nc2c(c(=O)[nH]c(=O)n2C)n1Cc1ccc(Cl)cc1 | -13.3 |
| COC(=O)C(O)(c1ccc(NC(=O)Oc2ccccc2)cc1)C(F)(F)F (stereo not shown) | -10.5 |
| Cc1ccc(NC(=O)COC(=O)c2cccnc2)cc1 | 13.8 |
| O=C(c1ccco1)n1nc(-c2ccco2)nc1SCc1ccccc1 | 7.58 |
| COc1ccc(Cc2c(N)nc(C)nc2N)cc1 | 33.4 |
| CC(=O)NS(=O)(=O)c1ccc(NC(=O)c2oc3c(Cl)cccc3c2C)cc1 | 4.19 |

| SMILES | hERG current change (%, negative = inhibition) at 10uM [%] |
| --- | --- |
| COc1cc(NC(=O)c2ccc(Cl)cc2)c(OC)cc1Cl | 0.583 |
| O=C(NCc1ccc(Cl)cc1)C1CCN(S(=O)(=O)c2cccs2)CC1 | -3.7 |
| CCOC(=O)Nc1ccc(C)cc1Br | -13.3 |
| COc1ccc(-n2c(O)c(/C=C/C=Nc3ccccc3)c(=O)[nH]c2=O)cc1 | 10.9 |
| Cc1ccc(NC(=O)Nc2ccc(F)cc2F)c(OC(F)F)c1 | 21.1 |
| Cc1cc(NS(=O)(=O)c2ccc(NC(=O)C(C)Oc3ccccc3Cl)cc2)no1 (stereo not shown) | 0.736 |
| Cc1ccc(OCC(O)CN2CCc3ccccc3C2)c(C)c1.Cl (stereo not shown) | -72.3 |
| CC1CCN(c2cc(C#N)c(C#N)cc2[N+](=O)[O-])CC1 | 0.621 |
| CCOCCn1c(CN(Cc2ccccc2)Cc2ccccc2)nc2c1c(=O)[nH]c(=O)n2C | -36 |
| O=[N+]([O-])c1ccc2[nH]cc(S(=O)(=O)N3CCN(c4cccc(Cl)c4)CC3)c2c1 | 16.3 |
| O=C(O)CSCC(=O)N1CCN(c2nc3cc(Cl)ccc3s2)CC1 | 5.58 |
| Cc1cccc(NC(=O)c2c(-c3ccccc3)noc2C)n1 | -35.7 |
| CSc1cccc(NC(N)=S)c1 | 9.95 |
| COc1ccc(C(=O)NC(=O)NC2(C(Cl)(Cl)Cl)OCCO2)cc1 | 20.3 |
| CN(C)CCNC(=O)c1onc(CSc2ccncc2)c1C(=O)NCCN(C)C | -2.03 |
| Cc1cc(C)cc(Oc2ccc(S(=O)(=O)N3CCN(C)CC3)cn2)c1 | 4.78 |
| COc1ccccc1CC(=O)N1CCN(C(=O)c2ccco2)CC1 | 6.5 |
| CC(NC(=O)C(CC(=O)OC(C)(C)C)NC(=O)OC(C)(C)C)C(N)=O (stereo not shown) (Boc-Asp(OtBu)-Ala-NH2; configuration not given here) | -5.99 |
| CCOc1ccc(NC(=O)[C@H](Cc2ccccc2)NC(=O)C2CCNCC2)cc1 | 17.7 |
| COC(=O)[C@@]1(Cc2ccc(OC)cc2)[C@H]2c3cc(C(=O)N4CCCC4)n(C[C@H](O)CO)c3C[C@H]2CN1C(=O)c1ccccc1 | -1.32 |
| CC(Sc1nncn1C)C(=O)Nc1ccc(Cl)cn1 (stereo not shown) | 1.14 |
| O=C(CCCCCn1c(SCc2ccncc2)nc2ccccc2c1=O)NCc1ccco1 | -86 |
